Measurements: the supplement of paper PMC7826260
Some of the results follow. The data describe in vitro nicking of single-stranded DNA by Rep domains (1 h at 37 °C, 3 µM enzyme); the outer parts of the 90-letter strands are left off. The score is log2 (uncut reads / reads without enzyme); the lower, the more was cut; hits are not called. The scaling is to total reads; where an enzyme cuts many sequences, the uncut ones exceed 0.

Each sequence was assayed on T1, Rep nickase domain of tomato golden mosaic virus (assay: uncleaved DNA left, log2 of reads against the no-enzyme library (log2 ratio); higher = less cleavage (more negative = more Rep cleavage of the k-mer); sequences stand for … in CTCGTCCG…ACCGGAGA).
T1 sequence (residues 1-124 of Rep, tag left off): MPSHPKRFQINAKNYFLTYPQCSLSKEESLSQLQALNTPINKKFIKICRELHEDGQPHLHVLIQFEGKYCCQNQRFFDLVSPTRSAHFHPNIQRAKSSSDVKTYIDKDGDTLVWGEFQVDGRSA
Protocol: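 A pool of 90-nt single-stranded DNAs with seven random bases just before the constant AC of the nick site (name = the seven bases) was cut by 3 µM recombinant His6-SUMO-tagged Rep nickase domain (300 nM DNA, 50 mM HEPES pH 8.0, 50 mM NaCl, 1 mM MnCl2, 1 h, 37 °C, three replicates). Uncut DNA was amplified and sequenced.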

Sequence	uncleaved DNA left (log2)
AGTTCTC	-0.0604
GCCGTCA	-0.0122
ATACAAG	0.0971
GCACAAG	0.166
GATATGC	-0.0571
TAGAACA	-0.0364
GCAACGC	0.0773
ATACCCT	0.058
AGTGAAG	0.167
GTTAATA	0.125
TGATGGC	0.0268
TAGCACA	0.00405
TGAGGGC	0.0148
GTTTCGG	0.165
AGGTTCA	0.0481
ATTCTTA	-0.0782
TTGCGCC	-0.237
TCAGCTT	0.125
GGTAGTA	0.0147
ATGCCAT	-0.0823

Sequence	uncleaved DNA left (log2)
CGAACGA	-0.128
TTTGGCG	-0.0609
CTAGTGA	0.0416
GGGTGCA	0.0134
CACAGCA	0.0914
CCGGATA	-0.00855
CGACGGA	-0.0563
CGTTACC	-0.0341
CGCCAAT	-0.387
CTATAGT	-0.454
GTCGTTC	0.0106
CCTTAGA	-0.178
GACCTAT	-0.0651
CGACTAT	0.0151
GAAGTGA	0.0152
AACGGTG	-0.00955
CCCCACA	-0.0354
GGGCCAT	-0.102
TATACTA	-0.0854
CTCGCGT	-0.045
